Source: PMC9103030
These are yes or no findings as the source states them, for the method shown.

Legend:
Assay in all cases: two-hybrid; each of 13 full-length OsJAZs as BD (bait, left column) and AD (prey, top row) fusion; yeast Y2HGold; growth on SD/-Leu/-Trp/-His/-Ade; graded strong (++), weak (+), undetectable (-)
OsJAZ5 (rice) = biological target: T1, OsJAZ5 (rice) (UniProt Q7XV97)
T1 sequence: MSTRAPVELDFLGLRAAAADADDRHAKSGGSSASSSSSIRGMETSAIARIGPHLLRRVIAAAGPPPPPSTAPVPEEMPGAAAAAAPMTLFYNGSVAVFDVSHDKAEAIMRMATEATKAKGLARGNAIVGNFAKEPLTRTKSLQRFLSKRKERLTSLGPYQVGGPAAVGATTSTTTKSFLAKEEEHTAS

OsJAZ7 (rice) = biological target: T2, OsJAZ7 (rice) (UniProt Q8H395)
T2 sequence: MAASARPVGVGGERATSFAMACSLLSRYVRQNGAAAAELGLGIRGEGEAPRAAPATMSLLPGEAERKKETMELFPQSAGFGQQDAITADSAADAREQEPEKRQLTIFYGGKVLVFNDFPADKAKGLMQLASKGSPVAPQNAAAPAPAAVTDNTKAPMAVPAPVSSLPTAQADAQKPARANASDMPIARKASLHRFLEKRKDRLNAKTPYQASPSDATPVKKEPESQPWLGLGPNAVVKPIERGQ

OsJAZ3 (rice) = biological target: T3, OsJAZ3 (rice) (UniProt Q6ZJU3)
T3 sequence: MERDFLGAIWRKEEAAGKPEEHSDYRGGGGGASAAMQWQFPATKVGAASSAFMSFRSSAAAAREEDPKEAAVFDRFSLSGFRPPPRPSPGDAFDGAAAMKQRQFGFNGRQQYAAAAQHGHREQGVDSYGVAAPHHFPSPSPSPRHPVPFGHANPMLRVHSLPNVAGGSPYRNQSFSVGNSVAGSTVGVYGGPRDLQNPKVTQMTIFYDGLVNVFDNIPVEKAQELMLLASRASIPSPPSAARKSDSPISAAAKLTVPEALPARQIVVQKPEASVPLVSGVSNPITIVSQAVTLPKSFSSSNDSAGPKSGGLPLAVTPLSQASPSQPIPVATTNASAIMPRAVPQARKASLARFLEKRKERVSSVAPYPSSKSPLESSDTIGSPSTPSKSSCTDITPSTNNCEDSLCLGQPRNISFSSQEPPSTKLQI

OsJAZ1 (rice) = biological target: T4, OsJAZ1 (rice) (UniProt Q7XPM8)
T4 sequence: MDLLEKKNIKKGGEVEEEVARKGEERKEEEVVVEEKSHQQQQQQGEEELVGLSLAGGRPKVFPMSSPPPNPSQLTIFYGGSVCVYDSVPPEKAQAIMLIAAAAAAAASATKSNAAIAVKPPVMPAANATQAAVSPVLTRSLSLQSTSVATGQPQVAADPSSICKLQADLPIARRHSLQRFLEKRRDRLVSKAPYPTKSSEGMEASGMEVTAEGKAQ

OsJAZ6 (rice) = biological target: T5, OsJAZ6 (rice) (UniProt Q84R94)
T5 sequence: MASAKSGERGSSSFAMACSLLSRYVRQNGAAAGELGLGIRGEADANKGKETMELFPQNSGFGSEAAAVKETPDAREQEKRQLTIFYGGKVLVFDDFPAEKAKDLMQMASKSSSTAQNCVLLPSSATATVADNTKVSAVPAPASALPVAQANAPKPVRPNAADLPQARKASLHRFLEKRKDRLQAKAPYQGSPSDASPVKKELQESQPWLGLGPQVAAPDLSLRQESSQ

OsJAZ12 (rice) = biological target: T6, OsJAZ12 (rice) (UniProt Q7XEZ1)
T6 sequence: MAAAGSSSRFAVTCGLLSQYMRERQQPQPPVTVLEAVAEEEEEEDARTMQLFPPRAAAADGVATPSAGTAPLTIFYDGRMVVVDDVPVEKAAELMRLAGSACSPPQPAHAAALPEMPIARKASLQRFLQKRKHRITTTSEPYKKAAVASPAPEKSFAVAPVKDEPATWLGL

OsJAZ8 (rice) = biological target: T7, OsJAZ8 (rice) (UniProt Q69P94)
T7 sequence: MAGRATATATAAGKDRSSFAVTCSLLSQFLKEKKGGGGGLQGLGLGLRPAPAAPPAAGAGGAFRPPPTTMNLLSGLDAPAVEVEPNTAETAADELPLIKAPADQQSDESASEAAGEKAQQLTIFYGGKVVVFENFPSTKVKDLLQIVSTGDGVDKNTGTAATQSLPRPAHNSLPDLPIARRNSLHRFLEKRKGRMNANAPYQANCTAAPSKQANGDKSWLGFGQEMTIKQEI

OsJAZ4 (rice) = biological target: T8, OsJAZ4 (rice) (UniProt Q6ES51)
T8 sequence: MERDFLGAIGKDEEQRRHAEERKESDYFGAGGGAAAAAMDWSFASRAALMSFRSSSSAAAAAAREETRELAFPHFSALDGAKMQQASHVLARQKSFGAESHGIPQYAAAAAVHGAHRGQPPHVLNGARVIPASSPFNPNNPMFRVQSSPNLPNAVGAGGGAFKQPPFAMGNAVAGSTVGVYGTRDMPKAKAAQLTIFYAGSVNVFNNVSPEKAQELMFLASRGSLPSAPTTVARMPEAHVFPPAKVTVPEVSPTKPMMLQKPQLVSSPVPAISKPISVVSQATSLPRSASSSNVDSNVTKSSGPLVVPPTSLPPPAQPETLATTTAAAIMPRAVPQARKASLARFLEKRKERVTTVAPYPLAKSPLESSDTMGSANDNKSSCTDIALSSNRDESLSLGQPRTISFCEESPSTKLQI

OsJAZ9 (rice) = biological target: T9, OsJAZ9 (rice) (UniProt Q8GSI0)
T9 sequence: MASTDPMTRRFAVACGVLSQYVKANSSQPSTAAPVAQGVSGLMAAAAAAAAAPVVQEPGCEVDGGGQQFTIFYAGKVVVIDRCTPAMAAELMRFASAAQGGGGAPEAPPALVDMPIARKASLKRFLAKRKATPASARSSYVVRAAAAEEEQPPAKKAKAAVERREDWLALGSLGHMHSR

Measured: binding

B1: OsJAZ3 (protein, UniProt Q6ZJU3 1-427)
chain: MERDFLGAIWRKEEAAGKPEEHSDYRGGGGGASAAMQWQFPATKVGAASSAFMSFRSSAAAAREEDPKEAAVFDRFSLSGFRPPPRPSPGDAFDGAAAMKQRQFGFNGRQQYAAAAQHGHREQGVDSYGVAAPHHFPSPSPSPRHPVPFGHANPMLRVHSLPNVAGGSPYRNQSFSVGNSVAGSTVGVYGGPRDLQNPKVTQMTIFYDGLVNVFDNIPVEKAQELMLLASRASIPSPPSAARKSDSPISAAAKLTVPEALPARQIVVQKPEASVPLVSGVSNPITIVSQAVTLPKSFSSSNDSAGPKSGGLPLAVTPLSQASPSQPIPVATTNASAIMPRAVPQARKASLARFLEKRKERVSSVAPYPSSKSPLESSDTIGSPSTPSKSSCTDITPSTNNCEDSLCLGQPRNISFSSQEPPSTKLQI
no binding: all assays above

B2: OsJAZ4 (protein, UniProt Q6ES51 1-416)
chain: MERDFLGAIGKDEEQRRHAEERKESDYFGAGGGAAAAAMDWSFASRAALMSFRSSSSAAAAAAREETRELAFPHFSALDGAKMQQASHVLARQKSFGAESHGIPQYAAAAAVHGAHRGQPPHVLNGARVIPASSPFNPNNPMFRVQSSPNLPNAVGAGGGAFKQPPFAMGNAVAGSTVGVYGTRDMPKAKAAQLTIFYAGSVNVFNNVSPEKAQELMFLASRGSLPSAPTTVARMPEAHVFPPAKVTVPEVSPTKPMMLQKPQLVSSPVPAISKPISVVSQATSLPRSASSSNVDSNVTKSSGPLVVPPTSLPPPAQPETLATTTAAAIMPRAVPQARKASLARFLEKRKERVTTVAPYPLAKSPLESSDTMGSANDNKSSCTDIALSSNRDESLSLGQPRTISFCEESPSTKLQI
not listed: OsJAZ12 (rice) | OsJAZ9 (rice)
no binding: all other assays above
